Results published in the supplement of paper PMC7125110.
± gives the standard error. This sample is rich in variants without activity.

B1: glmS ribozyme (parent)
chain: AUAAAAGCGCCAGAACUACAGAAAUGUAGUUGACGAGGAGGAGGUUUAUCGAAUUUUCGGCGGAUGCCUCCAAA

Experiments:
Details in all cases: with glucosamine-6-phosphate
glucosamine-6-phosphate [1] = variants of: B1; assay: self-cleavage kobs at 40 uM GlcN6P; higher = faster cleavage; RNA array
How it was run: (§1)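 E. coli RNA polymerase transcribed barcoded ribozyme variants in situ on sequenced MiSeq chips, which were tracked via a hybridised Cy3 probe at 37 °C. Tiles were imaged over ~14 h after glucosamine-6-phosphate (40 μM to 10 mM) in HEPES/KCl/Mg(OAc)2 buffer was flowed in. Normalised per-tile medians were fit to one- or two-exponential decays for kobs, and kcat and KM came from weighted Michaelis–Menten fits.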

glucosamine-6-phosphate [2] = variants of: B1; assay: self-cleavage kobs at 640 uM GlcN6P; higher = faster cleavage; RNA array
How it was run: as §1

glucosamine-6-phosphate [3] = variants of: B1; assay: self-cleavage kobs at 10000 uM GlcN6P; higher = faster cleavage; RNA array
How it was run: as §1

glucosamine-6-phosphate [4] = variants of: B1; assay: self-cleavage kobs at 160 uM GlcN6P; higher = faster cleavage; RNA array
How it was run: as §1

glucosamine-6-phosphate [5] = variants of: B1; assay: self-cleavage kobs at 2500 uM GlcN6P; higher = faster cleavage; RNA array
How it was run: as §1

Row | Variant | self-cleavage kobs at 40 uM GlcN6P (glucosamine-6-phosphate [1]) [s⁻¹] | self-cleavage kobs at 640 uM GlcN6P (glucosamine-6-phosphate [2]) [s⁻¹] | self-cleavage kobs at 10000 uM GlcN6P (glucosamine-6-phosphate [3]) [s⁻¹] | self-cleavage kobs at 160 uM GlcN6P (glucosamine-6-phosphate [4]) [s⁻¹] | self-cleavage kobs at 2500 uM GlcN6P (glucosamine-6-phosphate [5]) [s⁻¹]
1 | AUAAAAGCGCCAGAACUACAGAAAUGUAGUUGACGAUGAGGAGGUUUAUCGAAUUUUCGGCGGAAGCCUCCAAA | < 1e-05 | < 1e-05 |  |  | 
2 | AUAAAAGCGCCAGAACUACAGAAAUGUAGUUGACGAUGAGGAGGUUUAUCGAAUUUUCGGCGGACGCCUCCAAA | < 1e-05 |  | < 1e-05 |  | 
3 | AUAAAAGCGCCAGAACUACAGAAAUGUAGUUGACGAUGAGGAGGUUUAUCGAAUUUUCGGCGGAGGCCUCCAAA | < 1e-05 |  |  |  | 
4 | AUAAAAGCGCCAGAACUACAGAAAUGUAGUUGACGAGAAGGUGGUUUAUCGAAUUUUCGGCGGAUGCCUACAAA | < 1e-05 |  |  |  | 
5 | AUAAAAGCGCCAGAACUACAGAAAUGUAGUUGACGAGAACGAGGUUUAUCGAAUUUUCCGCGGAUGCCUCCAAA | < 1e-05 |  |  |  | 
6 | AUAAAAGCGCCAGAACUACAGAAAUGUAGUUGACGAGAAGGAGAUUUAUCGAAUUUUCGGCGGAUGCCUCCAAA | < 1e-05 | < 1e-05 | < 1e-05 | < 1e-05 | < 1e-05
7 | AUAAAAGCGCCAGAACUACAGAAAUGUAGUUGACGAGAAGGAGGUUUAUCUAAUUUUCGGCGGAUGCGUCCAAA | < 1e-05 |  |  |  | 
8 | AUAAAAGCGCCAGAACUACAGAAAUGUAGUUGACGAGAAGGAGGUUUAUCGAAUUUUCGGCGCAUGCCUCCAAA | < 1e-05 |  | < 1e-05 | < 1e-05 | 
9 | AUAAAAGCGCCAGAACUACAGAAAUGUAGUUGACGAGAAGGAGGUUUAACGAAUUUUCGGCGGAUGCCUCCAAA | < 1e-05 |  | < 1e-05 |  | 
10 | AUAAAAGCGCCAGAACUACAGAAAUGUAGUUGACGAGCAGUAGGUUUAUCGAAUUUUCGGCGGAUGCCUCCAAA | < 1e-05 | < 1e-05 | < 1e-05 | < 1e-05 | < 1e-05
11 | AUAAAAGCGCCAGAACUACAGAAAUGUAGUUGACGAGCAGGAGGUUUAUCUAAUUUUCGGCGGAUGCCUCCAAA | < 1e-05 | < 1e-05 | < 1e-05 |  | 
12 | AUAAAAGCGCCAGAACUACAGAAAUGUAGUUGACGAGCAGGAGGUUUAUCGAAUUUUCCGCGGAUGCCUCCAAA | < 1e-05 | < 1e-05 | < 1e-05 | < 1e-05 | < 1e-05
13 | AUAAAAGCGCCAGAACUACAGAAAUGUAGUUGACGAGCAGGAGGUUCAUCGAAUUUUCCGCGGAUUCCUCCAAA | < 1e-05 |  | < 1e-05 |  | < 1e-05
14 | AUAAAAGCGCCAGAACUACAGAAAUGUAGUUGACGAGCAGGAGGUUUAUCGAAUCUUCGGCGGAUGCCUCCAAA | < 1e-05 |  |  | < 1e-05 | 
15 | AUAAAAGCGCCAGAACUACAGAAAUGUAGUUGACGAGUAGGAGGUUUCUCGAAUUUUCGGCGGAUGCCUCGAAA | < 1e-05 |  | < 1e-05 |  | 
16 | AUAAAAGCGCCAGAACUACAGAAAUGUAGUUGACGAGUAGGAGGUUUAUAGAAUUUUCGGCGGAUGGCUCCAAA | 8.67e-05 ± 3.1e-05 |  |  |  | 
17 | AUAAAAGCGCCAGAACUACAGAAAUGUAGUUGACGAGUAGGAGGUUUAUCGAAUUUUCAGCGGUUGCCUCCAAA | < 1e-05 |  | < 1e-05 | < 1e-05 | < 1e-05
18 | AUAAAAGCGCCAGAACUACAGAAAUGUAGUUGACGAGUAGGAGGUUUAGCGAAUUUUCGGCGGAUGCCUCCAAA | < 1e-05 |  | < 1e-05 |  | 
19 | AUAAAAGCGCCAGAACUACAGAAAUGUAGUUGACGAGGCGGUGGUUUAUCGAAUUUUCGGCGGAUGGCUCCAAA | < 1e-05 |  |  |  | < 1e-05
20 | AUAAAAGCGCCAGAACUACAGAAAUGUAGUUGACGAGGCGGUGGUGUAUCGAAUUUUCGGCGGAUGCCUCCAAA | < 1e-05 |  |  |  | 
21 | AUAAAAGCGCCAGAACUACAGAAAUGUAGUUGACGAGGCGGAGGUUUAUCGUAUUUUCGGCGGAUGCCUCUAAA | < 1e-05 |  |  |  | 
22 | AUAAAAGCGCCAGAACUACAGAAAUGUAGUUGACGAGGCCGAGGUUUAUCGAAUUUUCGGCGGAUGCCUGCAAA | < 1e-05 | < 1e-05 | < 1e-05 |  | 
23 | AUAAAAGCGCCAGAACUACAGAAAUGUAGUUGACGAGGCGGAGGUUUAUCCAAUUUUCGGCGGAUGCCUCCAAA | < 1e-05 |  | < 1e-05 | < 1e-05 | 
24 | AUAAAAGCGCCAGAACUACAGAAAUGUAGUUGACGAGGCGGAGGUCUAUCGAAUUUUCGGCGGAUGCCUCCAAA | 3.41e-05 ± 9.8e-06 | 0.000488 ± 6.6e-05 | 0.00206 ± 0.00025 | 0.000168 ± 3.9e-05 | 0.00122 ± 0.00023
25 | AUAAAAGCGCCAGAACUACAGAAAUGUAGUUGACGAGGCGGAGGUUUACCGAAUUUUCGGCGGAUGCCUCCAAA | < 1e-05 |  |  |  | 
26 | AUAAAAGCGCCAGAACUACAGAAAUGUAGUUGACGAGGCGGAGGUUUACCGAAUGUUCGGCGGAUGCCUCUAAA | < 1e-05 |  | < 1e-05 |  | < 1e-05
27 | AUAAAAGCGCCAGAACUACAGAAAUGUAGUUGACGAGGCGGAGGUUUAUCGAAUUUACGGCGGAUGCGUCCAAA | < 1e-05 | < 1e-05 | < 1e-05 |  | < 1e-05
28 | AUAAAAGCGCCAGAACUACAGAAAUGUAGUUGACGAGGGGGAGGUUUAUGGAAUUUUAGGCGGAUGCCUCCAAA | 0.000142 ± 4.6e-05 |  |  |  | 
29 | AUAAAAGCGCCAGAACUACAGAAAUGUAGUUGACGAGGGGGAGGUUUAUCGAAUUUUCGGAGGAUGCCUCCAAA | < 1e-05 | < 1e-05 | < 1e-05 |  | < 1e-05
30 | AUAAAAGCGCCAGAACUACAGAAAUGUAGUUGACGAGGGGGAGGUUUAUCGAAUUUUCCGCGGAUGCCUCCAAA | < 1e-05 | < 1e-05 |  |  | < 1e-05
